The supplement of paper PMC8728848
The list shows a part of the results.

Legend:
Assay in all cases: glycan array binding signal (z-score within array); higher = stronger binding
Conditions in all cases: glycan notation: IUPAC condensed, linker removed
[1] = target: Fuc(a1-3)[Gal3S(b1-4)]GlcNAc6S
Procedure, shortened: (§1)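 Glycan array binding is given as a within-array Z-score, which can be read as non-binding when negative. The arrays, 3228 of them, came from the Consortium for Functional Glycomics database and were retained only where the protein sequence was available. Z-scores were averaged across arrays of the same protein sequence at different concentrations or buffers and across linkers.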

[2] = target: Fuc(a1-3)[GalNAc(b1-4)]GlcNAc
Procedure, shortened: as §1

[3] = target: Fuc(a1-3)[GalNAc(b1-4)]GlcNAc6S
Procedure, shortened: as §1

Fuc(a1-4)GlcNAc = target: Fuc(a1-4)GlcNAc
Procedure, shortened: as §1

Fuc(b1-3)GlcNAc = target: Fuc(b1-3)GlcNAc
Procedure, shortened: as §1

Gal(a1-2)Gal = target: Gal(a1-2)Gal
Procedure, shortened: as §1

Gal(a1-3)Gal = target: Gal(a1-3)Gal
Procedure, shortened: as §1

Gal(a1-3)Gal(b1-3)GlcNAc = target: Gal(a1-3)Gal(b1-3)GlcNAc
Procedure, shortened: as §1

[4] = target: Gal(a1-3)Gal(b1-3)GlcNAc(b1-2)Man
Procedure, shortened: as §1

[5] = target: Gal(a1-3)Gal(b1-3)GlcNAc(b1-2)Man(a1-3)[Gal(a1-3)Gal(b1-3)GlcNAc(b1-2)Man(a1-6)]Man(b1-4)GlcNAc(b1-4)GlcNAc
Procedure, shortened: as §1

[6] = target: Gal(a1-3)Gal(b1-3)GlcNAc(b1-3)GalNAc
Procedure, shortened: as §1

[7] = target: Gal(a1-3)Gal(b1-3)GlcNAc(b1-6)GalNAc
Procedure, shortened: as §1

[8] = target: Gal(a1-3)Gal(b1-3)[Fuc(a1-4)]GlcNAc(b1-2)Man(a1-3)[Gal(a1-3)Gal(b1-3)[Fuc(a1-4)]GlcNAc(b1-2)Man(a1-6)]Man(b1-4)GlcNAc(b1-4)GlcNAc
Procedure, shortened: as §1

Gal(a1-3)Gal(b1-4)Glc = target: Gal(a1-3)Gal(b1-4)Glc
Procedure, shortened: as §1

Gal(a1-3)Gal(b1-4)GlcNAc = target: Gal(a1-3)Gal(b1-4)GlcNAc
Procedure, shortened: as §1

[9] = target: Gal(a1-3)Gal(b1-4)GlcNAc(b1-2)Man
Procedure, shortened: as §1

[10] = target: Gal(a1-3)Gal(b1-4)GlcNAc(b1-2)Man(a1-3)[Gal(a1-3)Gal(b1-4)GlcNAc(b1-2)Man(a1-6)]Man(b1-4)GlcNAc(b1-4)GlcNAc
Procedure, shortened: as §1

[11] = target: Gal(a1-3)Gal(b1-4)GlcNAc(b1-3)GalNAc
Procedure, shortened: as §1

[12] = target: Gal(a1-3)Gal(b1-4)GlcNAc(b1-6)GalNAc
Procedure, shortened: as §1

[13] = target: Gal(a1-3)Gal(b1-4)[Fuc(a1-3)]GlcNAc
Procedure, shortened: as §1

[14] = target: Gal(a1-3)Gal(b1-4)[Fuc(a1-3)]GlcNAc(b1-2)Man(a1-3)[Gal(a1-3)Gal(b1-4)[Fuc(a1-3)]GlcNAc(b1-2)Man(a1-6)]Man(b1-4)GlcNAc(b1-4)GlcNAc
Procedure, shortened: as §1

Gal(a1-3)GalNAc = target: Gal(a1-3)GalNAc
Procedure, shortened: as §1

[15] = target: Gal(a1-3)[Gal(a1-4)]Gal(b1-4)GlcNAc
Procedure, shortened: as §1

[16] = target: Gal(a1-4)Gal(b1-3)GlcNAc(b1-2)Man(a1-3)[Gal(a1-4)Gal(b1-3)GlcNAc(b1-2)Man(a1-6)]Man(b1-4)GlcNAc(b1-4)GlcNAc
Procedure, shortened: as §1

Gal(a1-4)Gal(b1-4)Glc = target: Gal(a1-4)Gal(b1-4)Glc
Procedure, shortened: as §1

Gal(a1-4)Gal(b1-4)GlcNAc = target: Gal(a1-4)Gal(b1-4)GlcNAc
Procedure, shortened: as §1

[17] = target: Gal(a1-4)Gal(b1-4)GlcNAc(b1-2)Man(a1-3)[Gal(a1-4)Gal(b1-4)GlcNAc(b1-2)Man(a1-6)]Man(b1-4)GlcNAc(b1-4)GlcNAc
Procedure, shortened: as §1

[18] = target: Gal(a1-4)Gal(b1-4)GlcNAc(b1-3)Gal(b1-4)Glc
Procedure, shortened: as §1

Gal(a1-4)GlcNAc = target: Gal(a1-4)GlcNAc
Procedure, shortened: as §1

Gal(a1-6)Glc = target: Gal(a1-6)Glc
Procedure, shortened: as §1

Gal(b1-2)Gal = target: Gal(b1-2)Gal
Procedure, shortened: as §1

Gal(b1-3)Gal = target: Gal(b1-3)Gal
Procedure, shortened: as §1

Gal(b1-3)Gal(b1-4)GlcNAc = target: Gal(b1-3)Gal(b1-4)GlcNAc
Procedure, shortened: as §1

Gal(b1-3)GalNAc = target: Gal(b1-3)GalNAc
Procedure, shortened: as §1

[19] = target: Gal(b1-3)GalNAc(a1-3)[Fuc(a1-2)]Gal(b1-4)Glc
Procedure, shortened: as §1

[20] = target: Gal(b1-3)GalNAc(a1-3)[Fuc(a1-2)]Gal(b1-4)GlcNAc
Procedure, shortened: as §1

Gal(b1-3)GalNAc(b1-3)Gal = target: Gal(b1-3)GalNAc(b1-3)Gal
Procedure, shortened: as §1

[21] = target: Gal(b1-3)GalNAc(b1-3)Gal(a1-4)Gal(b1-4)Glc
Procedure, shortened: as §1

[22] = target: Gal(b1-3)GalNAc(b1-4)Gal(b1-4)Glc
Procedure, shortened: as §1

[23] = target: Gal(b1-3)GalNAc(b1-4)[Neu5Ac(a2-3)]Gal(b1-4)Glc
Procedure, shortened: as §1

Gal(b1-3)GlcNAc = target: Gal(b1-3)GlcNAc
Procedure, shortened: as §1

[24] = target: Gal(b1-3)GlcNAc(a1-3)Gal(b1-4)GlcNAc
Procedure, shortened: as §1

[25] = target: Gal(b1-3)GlcNAc(a1-6)Gal(b1-4)GlcNAc
Procedure, shortened: as §1

Gal(b1-3)GlcNAc(b1-2)Man = target: Gal(b1-3)GlcNAc(b1-2)Man
Procedure, shortened: as §1

[26] = target: Gal(b1-3)GlcNAc(b1-2)Man(a1-3)[Gal(b1-3)GlcNAc(b1-2)Man(a1-6)]Man(b1-4)GlcNAc(b1-4)GlcNAc
Procedure, shortened: as §1

B1: PLU (Photorhabdus luminiscence) (protein)
chain: HHHHHHENLYFQSSIVFASIDPRSNPLQTSSQNYVDIPGLKLDVSKYSNSPCLTALITLNIPTPYASGNNFPGGNFAIVTDQGEQLAYGGFTYSSKIPENSGRMPFTLVARYSLASNVSTIKAQWSNIRGSTVHIDSYASISAVIQCNQLV
Q: For B1, which “glycan array binding signal (z-score)” value [1] is on record?
A: -0.291

Q: What about the “glycan array binding signal (z-score)” value [2] of the same binder?
A: -0.102

Q: And the “glycan array binding signal (z-score)” value [3]?
A: -0.294

Q: And the “glycan array binding signal (z-score)” value (Fuc(a1-4)GlcNAc)?
A: 0.546

Q: And the “glycan array binding signal (z-score)” value (Fuc(b1-3)GlcNAc)?
A: -0.329

Q: What about the “glycan array binding signal (z-score)” value (Gal(a1-2)Gal) of the same binder?
A: -0.305

Q: And the “glycan array binding signal (z-score)” value (Gal(a1-3)Gal)?
A: -0.214

Q: What about the “glycan array binding signal (z-score)” value (Gal(a1-3)Gal(b1-3)GlcNAc) of the same binder?
A: -0.229

Q: And the “glycan array binding signal (z-score)” value [4]?
A: -0.235

Q: And the “glycan array binding signal (z-score)” value [5]?
A: -0.263

Q: What about the “glycan array binding signal (z-score)” value [6] of the same binder?
A: -0.249

Q: What about the “glycan array binding signal (z-score)” value [7] of the same binder?
A: -0.253

Q: What about the “glycan array binding signal (z-score)” value [8] of the same binder?
A: -0.018

Q: And the “glycan array binding signal (z-score)” value (Gal(a1-3)Gal(b1-4)Glc)?
A: -0.284

Q: And the “glycan array binding signal (z-score)” value (Gal(a1-3)Gal(b1-4)GlcNAc)?
A: -0.298

Q: And the “glycan array binding signal (z-score)” value [9]?
A: -0.304

Q: What about the “glycan array binding signal (z-score)” value [10] of the same binder?
A: -0.135

Q: And the “glycan array binding signal (z-score)” value [11]?
A: -0.331

Q: And the “glycan array binding signal (z-score)” value [12]?
A: -0.319

Q: What about the “glycan array binding signal (z-score)” value [13] of the same binder?
A: -0.21

Q: What about the “glycan array binding signal (z-score)” value [14] of the same binder?
A: -0.243

Q: And the “glycan array binding signal (z-score)” value (Gal(a1-3)GalNAc)?
A: -0.335

Q: What about the “glycan array binding signal (z-score)” value [15] of the same binder?
A: -0.209

Q: What about the “glycan array binding signal (z-score)” value [16] of the same binder?
A: -0.207

Q: What about the “glycan array binding signal (z-score)” value (Gal(a1-4)Gal(b1-4)Glc) of the same binder?
A: -0.261

Q: What about the “glycan array binding signal (z-score)” value (Gal(a1-4)Gal(b1-4)GlcNAc) of the same binder?
A: -0.199

Q: And the “glycan array binding signal (z-score)” value [17]?
A: -0.137

Q: And the “glycan array binding signal (z-score)” value [18]?
A: -0.328

Q: What about the “glycan array binding signal (z-score)” value (Gal(a1-4)GlcNAc) of the same binder?
A: -0.279

Q: What about the “glycan array binding signal (z-score)” value (Gal(a1-6)Glc) of the same binder?
A: -0.207

Q: What about the “glycan array binding signal (z-score)” value (Gal(b1-2)Gal) of the same binder?
A: -0.267

Q: What about the “glycan array binding signal (z-score)” value (Gal(b1-3)Gal) of the same binder?
A: -0.312

Q: And the “glycan array binding signal (z-score)” value (Gal(b1-3)Gal(b1-4)GlcNAc)?
A: -0.36

Q: And the “glycan array binding signal (z-score)” value (Gal(b1-3)GalNAc)?
A: -0.286

Q: What about the “glycan array binding signal (z-score)” value [19] of the same binder?
A: -0.291

Q: And the “glycan array binding signal (z-score)” value [20]?
A: -0.263

Q: What about the “glycan array binding signal (z-score)” value (Gal(b1-3)GalNAc(b1-3)Gal) of the same binder?
A: -0.345

Q: And the “glycan array binding signal (z-score)” value [21]?
A: -0.112

Q: What about the “glycan array binding signal (z-score)” value [22] of the same binder?
A: -0.265

Q: What about the “glycan array binding signal (z-score)” value [23] of the same binder?
A: -0.29

Q: And the “glycan array binding signal (z-score)” value (Gal(b1-3)GlcNAc)?
A: -0.268

Q: What about the “glycan array binding signal (z-score)” value [24] of the same binder?
A: -0.293

Q: And the “glycan array binding signal (z-score)” value [25]?
A: -0.297

Q: What about the “glycan array binding signal (z-score)” value (Gal(b1-3)GlcNAc(b1-2)Man) of the same binder?
A: -0.26

Q: What about the “glycan array binding signal (z-score)” value [26] of the same binder?
A: -0.194
